Results as given in PubChem BioAssay AID624417 (National Center for Advancing Translational Sciences (NCATS), 2012).
The whole screen tested about 410,000 compounds, of which about 6,400 (1.6%) were called active. Inconclusive results, whose numbers are uncertain, are shown with a selection of clear calls. The call rests on the fitted dose curve; in most records, active means well fitted inhibition curve with a large enough effect; inconclusive means small, poorly fitted or top-dose-only effect; inactive means no such curve, though single readings can be large or run the other way. Potencies of inconclusive entries are left out as doubtful fits.

Each compound was assayed against Glucagon-like peptide 1 receptor (Homo sapiens) (UniProt P43220) (assay: qHTS of GLP-1 Receptor Inverse Agonists (Inhibition Mode)). Conditions: HEK293 GLP-1R CRE-luciferase, luminescence, 24 h, GLP-1R form is constitutively active; activity change, negative = inhibition: at 38.3 µM (top of the series) unless noted.
Procedure, shortened: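 HEK293 cells stably co-expressing a cAMP-responsive luciferase reporter and constitutively active GLP-1R were seeded, incubated 12 h, then exposed to compounds for 24 h at 37 C. Luminescence was read 12 min after detection reagent; inverse agonists lower signal.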
Further: nearly all actives have a fitted effect of over 55% in size.
On the % scale 0 is the no-effect control and ±100 the full control effect; potency means the concentration at half of the fitted maximal effect; tags describe the fitted curve by direction and shape.

Sequence of UniProt P43220 (P43220 whole entry, looked up): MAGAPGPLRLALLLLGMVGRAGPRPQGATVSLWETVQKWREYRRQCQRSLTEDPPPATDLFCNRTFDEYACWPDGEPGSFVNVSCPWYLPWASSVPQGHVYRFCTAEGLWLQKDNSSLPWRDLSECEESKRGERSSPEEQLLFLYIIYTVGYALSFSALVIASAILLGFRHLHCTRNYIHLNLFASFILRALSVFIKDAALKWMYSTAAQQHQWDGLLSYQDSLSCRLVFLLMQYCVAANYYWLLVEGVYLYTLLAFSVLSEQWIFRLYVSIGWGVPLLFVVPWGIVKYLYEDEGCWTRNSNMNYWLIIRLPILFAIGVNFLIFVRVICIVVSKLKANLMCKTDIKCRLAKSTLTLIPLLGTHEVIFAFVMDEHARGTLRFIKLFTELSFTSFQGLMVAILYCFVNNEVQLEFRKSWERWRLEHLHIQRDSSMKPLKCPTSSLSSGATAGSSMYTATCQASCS

| SMILES | Potency | activity change, negative = inhibition |
| --- | --- | --- |
| Cc1nn(-c2ccccn2)c2nc(-c3cccs3)cc(C(=O)NCc3ccco3)c12 | inconclusive [inhibitor, single point] | – |
| COc1cccc(OCc2nnc(SCC(=O)NCc3ccco3)n2CCc2ccccc2)c1 | inconclusive [inhibitor, single point] | – |
| CC1=NN(c2nc3ccccc3s2)C(O)(C(F)(F)F)C1 (stereo not drawn) | inconclusive [inhibitor, single point] | – |
| NC(CCc1ccccc1)c1csc(Nc2ccc(C(=O)NCCCO)cn2)n1 (stereo not drawn) | inconclusive [inhibitor, partial curve, poor fit] | – |
| CC(=O)Nc1ccc(SCC(=O)c2cc(C)n(-c3ccccc3)c2C)cc1 | inconclusive [inhibitor, full curve, poor fit] | – |
| COc1ccc(OC)c(NC(=O)NNC(=O)CCCOc2ccc(Cl)cc2C)c1 | active: 10 µM | – |
| CN(C)C1(CNC(=O)C2CCN(S(=O)(=O)c3cccc(C(F)(F)F)c3)CC2)CCCCC1 | inconclusive [inhibitor, single point] | – |
| CN1CCN(c2ccc(Cl)cc2NC(=O)CN2C(=O)NC(C)(c3ccccc3)C2=O)CC1 (stereo not drawn) | inconclusive [inhibitor, partial curve, poor fit] | – |
| CC(C)c1ccc(N2C=Nc3ccc(C(C)C)cc3C2)cc1 | inconclusive [inhibitor, partial curve, poor fit] | – |
| CCC(=O)N1CCc2cc(Br)cc(S(=O)(=O)CCC(=O)Nc3ccc(Cl)cc3)c21 | inactive | – |
| CCN(CC)CCNC(=O)c1cn(CC)c2ccc(S(=O)(=O)N3CCc4ccccc4C3)cc2c1=O | inconclusive [inhibitor, single point] | – |
| Cc1ccc(S(=O)(=O)N2CCc3ccccc3C2CN2C(=O)c3ccccc3C2=O)cc1 (stereo not drawn) | inconclusive [inhibitor, single point] | – |
| CCCS(=O)(=O)NC(=O)C1(C)CCCN(C(=O)c2c(OC)cccc2OC)C1 (stereo not drawn) | inactive | – |
| Cc1cc(SCC(=O)Nc2ccc(O)cc2)n2nc(C)c(-c3ccccc3)c2n1 | inconclusive [inhibitor, single point] | – |
| CC(C)c1cc(-c2cc(C(=O)NCc3ccccc3)on2)nc(NCC2CC2)n1 | active: 12.6 µM | – |
| CCN(C(=O)COC(=O)c1cc(=O)[nH]c2ccccc12)c1c(N)n(Cc2ccccc2)c(=O)[nH]c1=O | inactive | – |
| CNc1ccccc(C(=O)/C=C/c2ccccc2OC)c1=O | inconclusive [inhibitor, single point] | – |
| CCN(CC)CCN1C(=O)C2C(C(=O)Nc3cccc(C)c3)C3C=CC2(O3)C1C(=O)NC1CCCC(C)C1C (stereo not drawn) | inconclusive [inhibitor, partial curve, poor fit] | – |
| Cc1nc2cc(NC(=O)Nc3ccccc3Cl)ccc2n1C | inconclusive [inhibitor, partial curve, poor fit] | – |
| O=C(O)C(Cc1ccccc1)N1C(=O)/C(=C/c2ccccc2)SC1=S (stereo not drawn) | inconclusive [inhibitor, single point] | – |
| O=C(NCc1ccco1)c1cnn2c1NC(c1ccc(Br)cc1)CC2C(F)(F)F (stereo not drawn) | inconclusive [inhibitor, single point] | – |

| SMILES | Potency | activity change, negative = inhibition |
| --- | --- | --- |
| O=C(c1ccc(-n2cncn2)c([N+](=O)[O-])c1)N1CCN(c2cccc(Cl)c2)CC1 | inconclusive [inhibitor, partial curve, poor fit] | – |
| N#Cc1ccc(NC(=O)C2Cc3ccccc3CN2S(=O)(=O)c2ccc(F)cc2)cc1 (stereo not drawn) | inconclusive [inhibitor, single point] | – |
| CCOc1cc(S(=O)(=O)N2CCN(CC)CC2)ccc1Cl | inactive | – |
| Cc1cc(C(C)(C)C)ccc1NC(=O)CC(C)(C)CC(=O)O | inactive | – |
| CC(NC(=O)CSc1nc2sc3c(c2c(=O)n1-c1ccccc1)CCCC3)c1ccccc1 (stereo not drawn) | active: 8.91 µM | – |
| Cc1ccc(C(=O)c2ccccc2C(=O)Nc2ccccc2)cc1 | inconclusive [inhibitor, single point] | – |
| Cc1nnc(SC(C)C(=O)Nc2ccc(Cl)cn2)n1Cc1ccccc1 (stereo not drawn) | inactive | – |
| C[C@@H]1CN(Cc2nc(-c3ccc(Cl)cc3)no2)C[C@H](C)O1 | inconclusive [inhibitor, single point] | – |
| Cn1c(C(=O)NCc2ccccc2)cc2oc3ccccc3c21 | inactive | – |
| Cc1cc(OCc2cc(C(=O)N(C)C3CCOCC3)no2)cc(C)c1Cl | inconclusive [inhibitor, partial curve, poor fit] | – |
| COC(=O)c1cc2sccc2n1Cc1ccc(F)cc1Cl | inconclusive [inhibitor, single point] | – |
| O=C(COc1ccc(Br)cc1)NCC1COc2ccccc2O1 (stereo not drawn) | inconclusive [inhibitor, single point] | – |
| CCNCC(=O)N1c2ccccc2CCc2ccc(NC(=O)OC(C)C)cc21 | inconclusive [inhibitor, single point] | – |
| CCOC(OCC)c1nc(N)[nH]c(=O)c1CCCCc1ccccc1 | inconclusive [inhibitor, single point] | – |
| O=C(O)C(CC1CCCCC1)N1CCS(=O)(=O)CC1 (stereo not drawn) | inactive | – |
| CC(C)N(c1ccccc1)c1ccc(NC(=O)COC(=O)CCN2C(=O)c3cccc([N+](=O)[O-])c3C2=O)cc1 | inconclusive [inhibitor, single point] | – |
| CC(=O)Nc1cc(-c2ccccc2)cn2c(-c3cccc(C(C)=O)c3)cnc12 | inactive | – |
| COc1ccc(CNC(=O)c2cc3c(C)nc4ccccc4c3o2)c(OC)c1 | inconclusive [inhibitor, single point] | – |
| C/C(CCc1ccccc1)=N\NC(=S)NCCc1ccccc1 | inconclusive [inhibitor, partial curve, poor fit] | – |
| CCCCOc1ccc(Br)cc1/C(C)=N/NC1=NCCN1 | active: 2.82 µM | – |
| Cc1ccc(Cn2ccc(=O)c(Cc3c(Cl)cccc3Cl)c2C)cc1 | inconclusive [inhibitor, partial curve, poor fit] | – |

| SMILES | Potency | activity change, negative = inhibition |
| --- | --- | --- |
| COc1ccc(-n2c(=O)c3sc4ccccc4c3n(Cc3ccccc3C)c2=O)cc1OC | inactive | – |
| CC1CC(C)CN(C(=O)c2ccccc2Nc2ccc(SC(F)F)cc2)C1 (stereo not drawn) | inconclusive [inhibitor, partial curve, poor fit] | – |
| Cc1ccc(NC(=O)Cn2nc(N3CCN(c4ccccc4)CC3)ccc2=O)cc1F | inconclusive [inhibitor, single point] | – |
| Cn1cc([C@@H]2C[C@H]3CN(Cc4cccc(Cl)c4)C(=O)[C@]34CCCN24)c(-c2ccccc2)n1 | inconclusive [inhibitor, single point] | – |
| O=C(Nc1ccc(Cl)cc1)c1cc2c(cc1O)[nH]c1ccccc12 | inconclusive [inhibitor, partial curve, poor fit] | – |
| OC(COCc1ccccc1)CN1CCN(Cc2ccc3c(c2)OCO3)CC1 (stereo not drawn) | inconclusive [inhibitor, full curve, poor fit] | – |
| N/C(Cc1ccc([N+](=O)[O-])cc1)=N\OC(=O)COc1cccc2ccccc12 | inconclusive [inhibitor, partial curve] | – |
| COc1ccc(OCc2ccc(-c3nc(C#N)c(N4CCCCC4)o3)o2)cc1 | inconclusive [inhibitor, single point] | – |
| CCCOC(=O)c1ccc(Oc2cn[nH]c2-c2ccc(OC)cc2O)cc1 | inconclusive [inhibitor, partial curve, poor fit] | – |
| COc1ccc2sc(N(CCCN(C)C)C(=O)c3ccc(S(=O)(=O)N4CCCc5ccccc54)cc3)nc2c1 | inconclusive [inhibitor, single point] | – |
| CC(C)(C)c1ccc(OCc2ccc(C(=O)N/N=C/c3ccc([N+](=O)[O-])cc3)o2)cc1 | inconclusive [inhibitor, full curve, poor fit] | – |
| C=C(C)C1Cc2c(C)nn(-c3cccc4cccnc34)c2C1 (stereo not drawn) | inconclusive [inhibitor, partial curve, poor fit] | – |
| O=C(NCc1ccc(Cl)cc1Cl)Nc1ccccc1 | inconclusive [inhibitor, partial curve, poor fit] | – |
| O=C(/C(=C/c1ccccc1)c1ccccc1)N1CCCCC1 | inconclusive [inhibitor, partial curve, poor fit] | – |
| CCN(CC)CCNC(=S)Nc1ccc(Cl)cc1 | inconclusive [inhibitor, full curve] | – |
| COc1ccc(-n2c(=S)[nH]c3cc(C(=O)Nc4ccccc4OC)ccc3c2=O)c(OC)c1 | inconclusive [inhibitor, single point] | – |
| COc1ccc(-n2c(=S)[nH]c3cc(C(=O)NC4CCCCC4)ccc3c2=O)c(OC)c1 | – | inactive: 2.54% [at 7.66 µM] |
| COc1ccc(CNc2nc3ccccc3n2C)c(OC)c1 | – | inactive: 8.34% [at 0.307 µM] |
| COc1ccccc1NC(=O)CC1C(=O)NCCN1C(=O)Nc1ccc(Cl)c(Cl)c1 (stereo not drawn) | inconclusive [inhibitor, partial curve, poor fit] | – |
| O=C(CS(=O)(=O)c1ccccc1)Nc1nc(-c2ccccc2)cs1 | inconclusive [inhibitor, single point] | – |
| CCCCOc1ccc(C(=O)NCc2nnnn2-c2ccc(C)c(C)c2)cc1 | inconclusive [inhibitor, single point] | – |
